Some entries share one result that the patent states for a list of compounds.
Target: T1, α7 nAChR (Homo sapiens, UniProt P36544)
T1 construct: human IMR-32 cells with native expression of α7 nAChR; endogenous in cells; host or cells: IMR-32 (human neuroblastoma)
Assay: cell-based real-time kinetic FLIPR Ca2+ assay, potentiation of agonist response (fold PAM activity)
Conditions: 1 μM test compound; human IMR-32 cells with native α7 nAChR; agonist PNU-282987, 10 μM; fold increase over agonist-alone effect

T1 sequence (P36544 23-502): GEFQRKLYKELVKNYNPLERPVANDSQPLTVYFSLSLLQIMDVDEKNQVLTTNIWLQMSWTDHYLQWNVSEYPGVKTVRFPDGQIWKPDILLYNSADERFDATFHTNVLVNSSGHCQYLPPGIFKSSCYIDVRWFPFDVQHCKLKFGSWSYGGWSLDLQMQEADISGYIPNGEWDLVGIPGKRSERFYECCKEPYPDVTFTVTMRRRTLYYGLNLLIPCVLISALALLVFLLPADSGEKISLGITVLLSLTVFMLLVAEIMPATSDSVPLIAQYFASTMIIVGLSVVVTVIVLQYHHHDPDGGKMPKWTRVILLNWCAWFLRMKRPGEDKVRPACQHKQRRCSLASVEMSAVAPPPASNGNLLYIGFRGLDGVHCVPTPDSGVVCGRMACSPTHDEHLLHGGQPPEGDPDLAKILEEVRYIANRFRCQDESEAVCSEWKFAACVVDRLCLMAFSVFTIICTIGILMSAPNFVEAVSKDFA

SMILES | Fold activation at 1 μM conc. (Group)
C[C@@]12CN(C(=O)c3nc(-c4ccc(Cl)cc4)c(-c4ccc(S(N)(=O)=O)cc4)s3)C[C@]1(C)C2 [Compound 72, (cis) 4-(4-(4-chlorophenyl)-2-(1,5-dimethyl-3-azabicyclo[3.1.0]hexane-3-carbonyl)thiazol-5-yl)benzenesulfonamide] | A (compounds with activity between 1 to 5 folds are grouped as A)
NS(=O)(=O)c1ccc(-c2sc(C(=O)N3CC4CC4C3)nc2-c2ccc(Cl)cc2)cc1 (centres unmarked) [Compound 73, 4-(2-(3-azabicyclo[3.1.0]hexane-3-carbonyl)-4-(4-chlorophenyl)thiazol-5-yl)benzenesulfonamide] | C (the compounds with activity above 15 folds are grouped as C)
NS(=O)(=O)c1ccc(-c2sc(C(=O)N3CCCc4ccccc43)nc2-c2ccc(Cl)cc2)cc1 [Compound 74, 4-(4-(4-chlorophenyl)-2-(1,2,3,4-tetrahydroquinoline-1-carbonyl)thiazol-5-yl)benzenesulfonamide] | A (compounds with activity between 1 to 5 folds are grouped as A)
NS(=O)(=O)c1ccc(-c2sc(C(=O)N3CCc4ccccc4C3)nc2-c2ccc(Cl)cc2)cc1 [Compound 75, 4-(4-(4-chlorophenyl)-2-(1,2,3,4-tetrahydroisoquinoline-2-carbonyl)thiazol-5-yl)benzenesulfonamide] | A (compounds with activity between 1 to 5 folds are grouped as A)
NS(=O)(=O)c1ccc(-c2sc(C(=O)N3CCC4(CC3)CC4)nc2-c2ccc(Cl)cc2)cc1 [Compound 76, 4-(4-(4-chlorophenyl)-2-(6-azaspiro[2.5]octane-6-carbonyl)thiazol-5-yl)benzenesulfonamide] | A (compounds with activity between 1 to 5 folds are grouped as A)
NS(=O)(=O)c1ccc(-c2sc(C(=O)N3CCCC4(CC4)C3)nc2-c2ccc(Cl)cc2)cc1 [Compound 77, 4-(4-(4-chlorophenyl)-2-(5-azaspiro[2.5]octane-5-carbonyl)thiazol-5-yl)benzenesulfonamide] | A (compounds with activity between 1 to 5 folds are grouped as A)
NS(=O)(=O)c1ccc(-c2sc(C(=O)N3CCCC34CC4)nc2-c2ccc(Cl)cc2)cc1 [Compound 79, 4-(4-(4-chlorophenyl)-2-(4-azaspiro[2.4]heptane-4-carbonyl)thiazol-5-yl)benzenesulfonamide] | C (the compounds with activity above 15 folds are grouped as C)
Cc1cc(-c2nc(C(=O)N3CC4CC4C3)sc2-c2ccc(S(N)(=O)=O)cc2)ccc1Cl (centres unmarked) [Compound 80, 4-(2-(3-azabicyclo[3.1.0]hexane-3-carbonyl)-4-(4-chloro-3-methylphenyl)thiazol-5-yl)benzenesulfonamide] | C (the compounds with activity above 15 folds are grouped as C)
NC(=O)c1ccc(-c2nc(C(=O)N3CC4CC4C3)sc2-c2ccc(S(N)(=O)=O)cc2)cc1 (centres unmarked) [Compound 81, 4-(2-(3-azabicyclo[3.1.0]hexane-3-carbonyl)-5-(4-sulfamoylphenyl)thiazol-4-yl)benzamide] | A (compounds with activity between 1 to 5 folds are grouped as A)
CC(=O)Nc1ccc(-c2nc(C(=O)N3CC4CC4C3)sc2-c2ccc(S(N)(=O)=O)cc2)cc1 (centres unmarked) [Compound 82, N-(4-(2-(3-azabicyclo[3.1.0]hexane-3-carbonyl)-5-(4-sulfamoylphenyl)thiazol-4-yl)phenyl)acetamide] | A (compounds with activity between 1 to 5 folds are grouped as A)
CN(C)C(=O)c1ccc(-c2nc(C(=O)N3CC4CC4C3)sc2-c2ccc(S(N)(=O)=O)cc2)cc1 (centres unmarked) [Compound 83, 4-(2-(3-azabicyclo[3.1.0]hexane-3-carbonyl)-5-(4-sulfamoylphenyl)thiazol-4-yl)-N,N-dimethylbenzamide] | A (compounds with activity between 1 to 5 folds are grouped as A)
NS(=O)(=O)c1ccc(-c2sc(C(=O)N3CC4CC4C3)nc2-c2ccc(F)cc2F)cc1 (centres unmarked) [Compound 84, 4-(2-(3-azabicyclo[3.1.0]hexane-3-carbonyl)-4-(2,4-difluorophenyl)thiazol-5-yl)benzenesulfonamide] | C (the compounds with activity above 15 folds are grouped as C)
NS(=O)(=O)c1ccc(-c2sc(C(=O)N3CC4CC4C3)nc2-c2ccc(C(F)(F)F)cc2)cc1 (centres unmarked) [Compound 85, 4-(2-(3-azabicyclo[3.1.0]hexane-3-carbonyl)-4-(4-(trifluoromethyl)phenyl)thiazol-5-yl)benzenesulfonamide] | C (the compounds with activity above 15 folds are grouped as C)
NS(=O)(=O)c1ccc(-c2sc(C(=O)N3CC4CC4C3)nc2-c2ccc(C3CC3)cc2)cc1 (centres unmarked) [Compound 86, 4-(2-(3-azabicyclo[3.1.0]hexane-3-carbonyl)-4-(4-cyclopropylphenyl)thiazol-5-yl)benzenesulfonamide] | B (the compounds with activity between 5.1 folds and 15 folds are grouped as B)
NS(=O)(=O)c1ccc(-c2sc(C(=O)N3CC4CC4C3)nc2-c2ccc(C(F)(F)F)nc2)cc1 (centres unmarked) [Compound 87, 4-(2-(3-azabicyclo[3.1.0]hexane-3-carbonyl)-4-(6-(trifluoromethyl)pyridin-3-yl)thiazol-5-yl)benzenesulfonamide] | C (the compounds with activity above 15 folds are grouped as C)
NS(=O)(=O)c1ccc(-c2sc(C(=O)N3CC4CC4C3)nc2-c2cccc3cccnc23)cc1 (centres unmarked) [Compound 88, 4-(2-(3-azabicyclo[3.1.0]hexane-3-carbonyl)-4-(quinolin-8-yl)thiazol-5-yl)benzenesulfonamide] | A (compounds with activity between 1 to 5 folds are grouped as A)
NS(=O)(=O)c1ccc(-c2sc(C(=O)N3CC4CC4C3)nc2N2CCc3c(Cl)cccc32)cc1 (centres unmarked) [Compound 89, 4-(2-(3-azabicyclo[3.1.0]hexane-3-carbonyl)-4-(4-chloroindolin-1-yl)thiazol-5-yl)benzenesulfonamide] | A (compounds with activity between 1 to 5 folds are grouped as A)
CC(=O)N1CCc2cc(-c3nc(C(=O)N4CC5CC5C4)sc3-c3ccc(S(N)(=O)=O)cc3)ccc21 (centres unmarked) [Compound 91, 4-(4-(1-acetylindolin-5-yl)-2-(3-azabicyclo[3.1.0]hexane-3-carbonyl)thiazol-5-yl)benzenesulfonamide] | A (compounds with activity between 1 to 5 folds are grouped as A)
CN(C)S(=O)(=O)c1ccc(-c2sc(C(=O)N3CC4CC4C3)nc2-c2ccc(Cl)cc2)cc1 (centres unmarked) [Compound 92, 4-(2-(3-azabicyclo[3.1.0]hexane-3-carbonyl)-4-(4-chlorophenyl)thiazol-5-yl)-N,N-dimethylbenzenesulfonamide] | A (compounds with activity between 1 to 5 folds are grouped as A)
O=C(c1nc(-c2ccc(Cl)cc2)c(-c2ccc(S(=O)(=O)N3CCCCC3)cc2)s1)N1CC2CC2C1 (centres unmarked) [Compound 93, 3-azabicyclo[3.1.0]hexan-3-yl(4-(4-chlorophenyl)-5-(4-(piperidin-1-ylsulfonyl)phenyl)thiazol-2-yl)methanone] | A (compounds with activity between 1 to 5 folds are grouped as A)

From patent US9388196B2, “Thiazole derivatives as alpha 7 nAChR modulators” (Lupin Limited, priority 2012, dated 2016)
